From the supplement of paper PMC11417369
Some of the results follow.

System: PfSIP2 AP2 domain 1 (GST-tagged)
Assay: gcPBM binding intensity (ln(normalized median fluorescence intensity)); higher = stronger DNA binding
Outline: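 Using an Agilent 4 × 180k array, primer-extended double-stranded 36-bp intergenic genomic probes and negative controls were exposed for 1 h to GST-fused P. falciparum DNA-binding domains expressed in E. coli. Binding was carried out in 1× PBS with 1% milk, 0.2 mg/ml BSA, 0.5% salmon testes DNA and 0.03% Triton X-100, and protein was detected with Alexa488 anti-GST antibody and a 488 nm scan. Binding intensity is the highest Masliner-normalised natural-log median intensity across replicate spots of either probe orientation.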

Sequence	gcPBM binding intensity (ln)
AAAAAAAATTAAATAAATAAATATACACATATATAT [GTGCAC_negctrl_site394]	7.09
TTTTTTTTTTTTTTTTTTTTACCCCTTTTTCAAAAA [CACACA_negctrl_site1524]	7.04
AAAACATTGTTTATGTGTACATAATTATATTTACAA [XGTACX_site6926]	7.1
AACTAATTCATGTTATATTAGATAAAAAAAAAAAAA [TGCATGCA_negctrl_site340]	6.88
ATATTTTTTAATTTTACACACCATATAAAATAATTC [CACACA_site7339]	7.09
AAATATATTATATGTACACACAAAATTAAGGGATAT [CACACA_site1375]	7.47
ATCAATACTTTTTTGGGTACATAAATATATATATAT [XGTACX_site8436]	9.07
GTGTTTGAAAATAAAGCATGCAAATATATTTGAAAT [TGCATGCA_site386]	7.05
AAAATAATAAATAAATGTACATATATATATATATAT [XGTACX_site3078]	9.18
TTTTTTTTGTTCATTGTGCACATTGCTTGCATGGAA [GTGCAC_site9693]	9.25
ATAAGATTATACAATTGTACGTTGTTCAAGATAAGG [XGTACX_site191]	6.99
TTTATGTGTATTAAGTGTACACATATAGTGTATTTT [XGTACX_site999]	7.42
ATATATAAGGAAAAAAGTACTTATATTTTTTTTTTG [XGTACX_site1909]	6.74
AACAAATGTTAAATGTTTAAGGAGAAAATAAAGACA [CACACA_negctrl_site1163]	7.4
GAAAACATAAAAATATGTACTTAAAATATATTTTGT [XGTACX_site868]	6.89
AAAACGAAACATCTGTGTATAAGTCTATATTATTAT [XGTACX_negctrl_site301]	6.85
TGTCATGATACATACACACACATACCCATACCCATA [CACACA_site5211]	7.06
AAATAAAGCATGTGCTGTACAAACGAAATATTTAAG [XGTACX_site3146]	6.95
TAAAATGTACAGGACGCACACACATATATATATATA [CACACA_site3673]	9.5

Sequence	gcPBM binding intensity (ln)
TTTTTTTTTTTTCATTGTACTCTTAAAAATTCAACT [XGTACX_site3154]	7.11
AACAACAACTAATATGCACACATTTAAAAACAAAAT [CACACA_site2440]	7.5
TATTTTTTTTTTTTTTTACACACTATAGGGAAAAAA [CACACA_site8583]	6.95
ATTAAAATTTAAAATACACACACATATATATAATAT [CACACA_site8612]	7.16
GCTTCTTAATATCATACACACATAGATATATTTATA [CACACA_site5676]	7.5
GGAGACTTTGTATTGGGTACGTATTTCAATGCATGT [XGTACX_site1596]	7.12
AAACCTTTACATCGTTTGCACTATATTGATATGTGT [GTGCAC_site9686]	8.37
CATACATACATACATACACACACATATATATATATA [CACACA_site8593]	9.67
TTTTTTAACAAAAATAAAACATAACTGAATTAAAAG [GTGCAC_negctrl_site244]	7
CTTCCTATATTTTACTGTACTTTTTTTTTTTTTTTT [XGTACX_site4016]	7.67
ACGAATTAAATTTGCTGTACCAAAAAGAAAACAATA [XGTACX_site5511]	7.09
TCATTTTAAAAAAATAGTACTTTAAGAAACTTTTAT [XGTACX_site602]	6.81
TTTTTTTTTTTTTTTTTTTATGTATACATATTTATA [TGCATGCA_negctrl_site234]	7.15
GATATTCTATAAAAAAGTACAAATATTTTAAAAAAT [XGTACX_site2177]	7.05
AGCATTAATTATTTCACACATATATATATATATATA [CACACA_site4889]	9.6
TAAATCCTTTACAACACACACACAAAAAAAAAAAAA [CACACA_site643]	7.07
ATATTCATGTTGATATGTACTTATTCTATATTGAAT [XGTACX_site8347]	7.01
TATATATATATATATATACACACTTGTGCAGAATAT [CACACA_site2216]	9.56
AATACAAGAACTGACACACATACATACTACATTTTA [CACACA_site2829]	7.08

Sequence	gcPBM binding intensity (ln)
ATATTTATATATAGTAGTACTTTCAATAATTTAAAT [XGTACX_site7276]	7.05
TATGATATTTATATGCGTACTGAAGTATGCCTATTT [XGTACX_site6133]	6.77
AAAAAATTAAAAATACGTACATATATACATATATAT [XGTACX_site4621]	7.31
TCTTAAAATATATAGGTGCAAAAAAAAAAAAAAAAA	10.6
AAAGAAAGAAGACACACACACATATATAAATATCAA [CACACA_site7715]	6.9
TGTTTTTATTTATTCTGTACTGAAGAGAGTTATATA [XGTACX_site8859]	7.19
TAAGAAATAAATAGTACACACATAGACACAGACACA [CACACA_site4934]	7.27
TTTAAATACAGACATACACACATACACCCACATATA [CACACA_site8078]	7.31
ATATAAATTTTTTATGAACACACAAATACAGACACT [CACACA_site8848]	7.37
GTATATGAGAAAAAAAGTACATGCACAAAATGTATA [XGTACX_site6441]	7.42
ATAATTAAAAAAAATTGTACATATAAATAGAAGATT [XGTACX_site230]	7.22
AGATTAAAATAATATAAACACACATATACTTTTTTC [CACACA_site8085]	7.01
AAAAAAAAAAGAATAGCACACACACCGATATAAATA [CACACA_site8111]	6.79
TAGGTATGCTCTCAATGTACATAAAATAATTTTACT [XGTACX_site6556]	7.02
ATAAATATTAAAAGTACACACAGATACACTAATTAT [CACACA_site1808]	7.2
TGAGTACACAATAATACATGCAATTCCTATGAATAT [TGCATGCA_site851]	6.99
ATATGACATAAAACATGTACATGTTCATAAATATAT [XGTACX_site1923]	7.07
ATTTACATAATAAAATGTACATTTATAAATATTATA [XGTACX_site1901]	7.11
